This is an account of results in CN115594767A (CRYSTAL ORIGIN BIOMEDICAL SUZHOU CO LTD, dated 2023).

This assay concerns the target CD16A-158V (UniProt P08637 part only). Nature of the assay: BLI, CD16A-158V on anti-his probe, antibody as analyte.

Sequence of CD16A-158V (P08637 17-208 F176V limits assumed): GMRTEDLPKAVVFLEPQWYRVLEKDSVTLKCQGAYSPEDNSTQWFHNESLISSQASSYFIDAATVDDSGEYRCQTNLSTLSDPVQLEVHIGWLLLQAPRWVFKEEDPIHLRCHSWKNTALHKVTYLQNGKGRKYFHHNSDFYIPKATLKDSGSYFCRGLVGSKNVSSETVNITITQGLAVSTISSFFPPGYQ

B1: JY004 (bispecific antibody, human IgG1, kappa)
heavy: [no letters for about 120 residues]GGGGSGGGGSEVQLVESGGGLVQPGGSLRLSCAASGFTFTDYTMDWVRQAPGKGLEWVADVNPNSGGSIYNQRFKGRFTLSVDRSKNTLYLQMNSLRAEDTAVYYCARNLGPSFYFDYWGQGTLVTVSSASTKGPSVFPLAPSSKSTSGGTAALGCLVKDYFPEPVTVSWNSGALTSGVHTFPAVLQSSGLYSLSSVVTVPSSSLGTQTYICNVNHKPSNTKVDKKVEPKSCDKTHTCPPCPAPELVGGPSVFLLPPKPKDTLMISRTPEVTCVVVDVSHEDPEVKFNWYVDGVEVHNAKTKPPEEQYNSTLRVVSVLTVLHQDWLNGKEYKCKVSNKALPAPIEKTISKAKGQPREPQVYTLPPSREEMTKNQVSLTCLVKGFYPSDIAVEWESNGQPENNYKTTPLVLDSDGSFFLYSKLTVDKSRWQQGNVFSCSVMHEALHNHYTQKSLSLSPGK
light: [no letters for about 100 residues]GGGGSGGGGSDIQMTQSPSSLSASVGDRVTITCKASQDVSIGVAWYQQKPGKAPKLLIYSASYRYTGVPSRFSGSGSGTDFTLTISSLQPEDFATYYCQQYYIYPYTFGQGTKVEIKRTVAAPSVFIFPPSDEQLKSGTASVVCLLNNFYPREAKVQWKVDNALQSGNSQESVTEQDSKDSTYSLSSTLTLSKADYEKHKVYACEVTHQGLSSPVTKSFNRGEC
notes: also called 本发明的抗体; 靶向HER2的双特异性抗体
B1 showed a Kd of 0.0778 µM, an off-rate (koff) of 0.0277 s⁻¹ and a kon of 357000 M⁻¹ s⁻¹.
